Results are given in words; binding and its absence hold for the method and conditions named. Binding seen in cells or lysates may run through a third protein. Some binding calls cover weakened binding; strength is not graded here. For part of these data: Where a sequence is shown, tags or fusion partners need not be part of it.

Assay in all cases: pull-down; GST fusion proteins on GSH-sepharose beads incubated with pre-cleared rat brain synaptosomal lysate (20 mM Tris pH 7.4, 150 mM NaCl, 1% Triton X-100, 1 mM EDTA, 1 mM EGTA) at 4 °C for 1 h; bound proteins by Coomassie stain or Western blot (some blots quantified by densitometry); only the target purified
A general note: A western blot detects proteins with antibodies after separation by electrophoresis.

Experiment [1] addresses T1, GST-Dyn1xA-PRR 794-864 (rat) (UniProt P21575).
T1 sequence: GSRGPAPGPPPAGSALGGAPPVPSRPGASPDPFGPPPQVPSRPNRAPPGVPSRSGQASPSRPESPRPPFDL

The target of experiment [2] is T2, GST-dyn1xA-PRR P830/833A (rat) (UniProt P21575).
T2 sequence: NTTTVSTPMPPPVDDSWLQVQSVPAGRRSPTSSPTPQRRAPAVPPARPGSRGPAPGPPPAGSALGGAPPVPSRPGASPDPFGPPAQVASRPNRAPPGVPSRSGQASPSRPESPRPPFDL

The target in experiment [3] is T3, GST-dyn1xA-PRR 806-864 P816/819A (rat) (UniProt P21575).
T3 sequence: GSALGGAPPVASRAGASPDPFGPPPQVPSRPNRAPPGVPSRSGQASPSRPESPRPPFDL

Experiment [4] has as its target T4, GST-dyn1xA-PRR S851/857E (rat) (UniProt P21575).
T4 sequence: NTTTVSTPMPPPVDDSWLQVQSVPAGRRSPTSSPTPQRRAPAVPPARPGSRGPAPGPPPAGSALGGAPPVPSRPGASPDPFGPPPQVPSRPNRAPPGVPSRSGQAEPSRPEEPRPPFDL

For experiment [5], the target named is T5, GST-dyn1xA-PRR R846A (rat) (UniProt P21575).
T5 sequence: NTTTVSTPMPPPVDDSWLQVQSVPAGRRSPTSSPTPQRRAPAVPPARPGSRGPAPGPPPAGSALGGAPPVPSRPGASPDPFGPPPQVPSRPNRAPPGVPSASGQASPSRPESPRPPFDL

Experiment [6] addresses T6, GST-dyn1xA-PRR 806-864 R838A (rat) (UniProt P21575).
T6 sequence: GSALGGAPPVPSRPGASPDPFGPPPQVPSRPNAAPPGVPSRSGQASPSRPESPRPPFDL

The target of experiment [7] is T7, GST-dyn1xA-PRR P816/819A (rat) (UniProt P21575).
T7 sequence: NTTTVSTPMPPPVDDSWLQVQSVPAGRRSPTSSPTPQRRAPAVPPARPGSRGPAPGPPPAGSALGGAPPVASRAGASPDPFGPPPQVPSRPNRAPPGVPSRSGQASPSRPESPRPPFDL

The target in experiment [8] is T8, GST-Dyn1xA-PRR 806-864 (rat) (UniProt P21575).
T8 sequence: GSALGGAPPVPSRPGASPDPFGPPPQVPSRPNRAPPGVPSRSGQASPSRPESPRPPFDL

Experiment [9] concerns the target T9, GST-dyn1xA-PRR 806-864 P813/816A (rat) (UniProt P21575).
T9 sequence: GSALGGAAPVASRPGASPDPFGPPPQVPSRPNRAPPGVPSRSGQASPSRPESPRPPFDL

For experiment [10], the target named is T10, GST-dyn1xA-PRR S774/778E (rat) (UniProt P21575).
T10 sequence: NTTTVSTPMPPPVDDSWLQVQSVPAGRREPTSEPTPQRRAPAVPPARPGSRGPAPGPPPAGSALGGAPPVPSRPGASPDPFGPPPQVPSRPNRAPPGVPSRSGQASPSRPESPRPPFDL

Experiment [11] addresses T11, GST-dyn1xA-PRR P813/816A (rat) (UniProt P21575).
T11 sequence: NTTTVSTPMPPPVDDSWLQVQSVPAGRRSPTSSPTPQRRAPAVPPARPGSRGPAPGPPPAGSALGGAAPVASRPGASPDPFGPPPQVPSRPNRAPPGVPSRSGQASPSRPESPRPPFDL

The target of experiment [12] is GST-Dyn1xA-PRR (dynamin 1xA proline-rich region, amino acids 746-864) (rat) (UniProt P21575).
Experiment [13] addresses T12, GST-dyn1xA-PRR P833/836A (rat) (UniProt P21575).
T12 sequence: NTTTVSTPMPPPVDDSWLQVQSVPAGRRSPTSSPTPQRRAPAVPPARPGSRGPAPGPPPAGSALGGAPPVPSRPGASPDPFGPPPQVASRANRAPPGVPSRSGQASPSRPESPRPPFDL

Experiment [14] has as its target T13, GST-dyn1xA-PRR P844A (rat) (UniProt P21575).
T13 sequence: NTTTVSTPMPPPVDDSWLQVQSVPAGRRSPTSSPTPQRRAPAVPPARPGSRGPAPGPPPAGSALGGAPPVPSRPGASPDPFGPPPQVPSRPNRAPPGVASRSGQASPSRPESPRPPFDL

Experiment [15] has as its target T14, GST-dyn1xA-PRR 806-864 P833/836A (rat) (UniProt P21575).
T14 sequence: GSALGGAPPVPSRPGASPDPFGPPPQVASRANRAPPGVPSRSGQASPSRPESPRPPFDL

B1: Amphiphysin 1 (protein, UniProt O08838 1-683)
chain: MADIKTGIFAKNVQKRLNRAQEKVLQKLGKADETKDEQFEEYVQNFKRQEAEGTRLQRELRGYLAAIKGMQEASMKLTESLHEVYEPDWYGREDVKMVGEKCDVLWEDFHQKLVDGSLLTLDTYLGQFPDIKNRIAKRSRKLVDYDSARHHLEALQSSKRKDESRISKAEEEFQKAQKVFEEFNVDLQEELPSLWSRRVGFYVNTFKNVSSLEAKFHKEIAVLCHKLYEVMTKLGDQHADKAFSIQGAPSDSGPLRIAKTPSPPEEASPLPSPTASPNHTLAPASPAPVRPRSPSQTRKGPPVPPLPKVTPTKELQQENIINFFEDNFVPEINVTTPSQNEVLEVKKEETLLDLDFDPFKPDVTPAGSAAATHSPMSQTLPWDLWTTSTDLVQPASGGSFNDFTQPQDTSLFTMQTDQNMAETEQALPTEPQAEEPPTTAAAPTAGLDLGLEMEEPKEEAAIPPGTDAGETVGTEGSTGEEAEAEKAALPAGEGESPEGAKIDVESTELASSESPQAAELEAGAPQEKVIPSVVIEPASNHEGEEHQETTTGTETREATEDVAPQGPAGEKQELATEPTPLDSQAATPAPAGAVDASLSAGDAAQELPPGFLYKVETLHDFEAANSDELTLQRGDVVLVVPSDSEADQDAGWLVGVKESDWLQYRDLATYKGLFPENFTRHLE
Consider B1, for which the binding result is reported as “binds” in experiment [1]; “no binding” in experiment [2]; “binds” in [3]; “binds” in experiment [4]; “binds” in experiment [5]; “binds weakly” in [6]. In addition, the binding result in [7], in [8], in [9], in [10], in experiment [11] and in experiment [12] was “binds” in each case. In addition, the values for the binding entry in [13], in [14] and in experiment [15] were “no binding”, “binds” and “no binding”, respectively.

Source of the values: publication PMC11329700.
